From ChEMBL document CHEMBL1157539, “Thousands of chemical starting points for antimalarial lead identification” (Nature, 2010) come the findings set out here.

In all, about 13,000 compounds were measured (“IFI”: median about 4, highest 2% from about 17 on). This is one part of the list.

The assay is described as follows: GSK_TCMDC: Inhibition Frequency Index (IFI). The number of non-kinase HTS assays where a compound showed > 50 % inhibition, expressed as a percentage of the number of such assays in which the compound was tested (-0 is zero). Type of assay: functional.
In turn, `COc1ccccc1NC(=O)Nc1cccc(-c2ccc(-c3nc4cccc(C)c4[nH]3)s2)c1` showed an IFI of 2.97%. As for `O=S(=O)(NCCN1CCCC1)c1ccc(-c2ccc(CNCc3ccccc3)cc2)s1`, the IFI was found to be 7.84%.

Regarding `Cc1cc(C)c(CON2C(=N)N=C(N)NC2(C)C)cc1C`, the IFI was 3.57%. Molecule `C=C(C)C1CC=C(CN2CCCC(n3ccc4cc(NC(=O)c5ccco5)ccc43)CC2)CC1` (stereo unspecified) had an IFI of 9.38%. The same measure for `O=C(Nc1nc2cc(S(=O)(=O)NCc3ccc(Cl)c(Cl)c3)ccc2n1CCCn1ccnc1)c1ccc(Cl)cc1`: 1.42%. Take `O=C(CCN1CCCCC1)Nc1ccc(Nc2nccc(NCC(O)c3ccccc3)n2)cc1` (stereo unspecified): the IFI is 1.03%. For `CCNc1cc(C(=O)N[C@@H](Cc2ccccc2)[C@H](O)CNC2(CC)CCCCC2)cc(N2CCCCS2(=O)=O)c1`, the IFI is 3.01%.

With `CN(CCC(CCN1CCC(c2c[nH]c3ccccc23)CC1)c1ccccc1)C(=O)Nc1ccc(Cl)c(Cl)c1` (stereo unspecified), the IFI worked out at 10.7%. The same measure for `COc1ccc2ncc(F)c([C@H](O)CN3CCC(NCc4ccc5c(c4)OCCO5)CC3)c2c1`: 2.24%; for `Cc1nc2nc(N)nc(N)c2c(C)c1Cc1c(Cl)cccc1Cl`: 4.44%; for `Cc1cc(O)c(CN(C)Cc2ccc(N(C)C)cc2)cc1C(C)C`: 0%.

Molecule `CC1(C)NC(N)=NC(=N)N1OCC1CCCCC1` came in with an IFI of 2.21%. On to `CCn1cc2c3c(cc(C(=O)N[C@@H](Cc4ccccc4)[C@H](O)CNCc4cccc(OC)c4)cc31)N(C)S(=O)(=O)CC2`, for which the IFI was found to be 4.35%.

Regarding `CCOc1ncccc1CN1CCC(N2CCc3cc(NC(=O)c4ccco4)ccc32)C1` (stereo unspecified), the IFI is -0%. The molecule `Cc1cc(NC(=O)c2ccco2)ccc1OC1CCN(Cc2ccc(F)cc2)C1` (stereo unspecified) gave an IFI of 1.64%.

`CC(C)C[C@H](NC(=O)c1ccc(OCCN2CCOCC2)cc1)C(=O)N[C@H](/C=N/NC(=O)c1ccccc1)CCc1ccccc1` gave an IFI of 9.09%. The molecule `CC1CCN(CC[C@H]2CCCN2S(=O)(=O)c2cccc(NC(=O)c3ccc(-c4ccc(Cl)cc4)o3)c2)CC1` yielded an IFI of 9.86%. Molecule `COc1ccc(-c2cc(C(=O)Nc3ccc(CCCN(C)Cc4ccc(OC)c(OC)c4)cc3)c3ccccc3n2)cc1` returned an IFI of 7.86%. For `CC(C)(C)OC(=O)[C@H](CC(N)=O)NC(=O)c1ccc(-c2ccc(-c3nc4cc(C(F)(F)F)ccc4[nH]3)s2)cc1`, the IFI came out at 5.66%. As for `Cc1nc(-c2cccc(C(=O)NC3CCC(CCN4CCc5ccc(-c6cccnc6)cc5CC4)CC3)c2)no1` (stereo unspecified), the IFI stood at 4.35%. Molecule `Cc1cccc2nc(-c3ccc(-c4ccc(C(=O)NCCN5CCCC5)cc4)cc3)[nH]c12` showed an IFI of 5.36%. The same measure for `CCCCCCn1c(Sc2ccc(C#N)c([N+](=O)[O-])c2)nnc1-c1cccs1`: 5.71%; for `Cc1cc(Nc2ccc(O)cc2)nc2cccc(O)c12`: 7.77%.

The molecule `N#Cc1ccc(-c2ccc(C(=O)NCCCCN3CCC(c4cc(Br)c5c(c4O)CCCC5)CC3)cc2)cc1` gave an IFI of 11.4%. Molecule `CCc1ccc(NC(=O)N(CCCN2CCN(C)CC2)Cc2csc(-c3ccc(CNCc4ccccc4)cc3)n2)cc1` gave an IFI of 8.97%. In turn, `COc1ccc2ncc(Cl)c(CCN3C[C@H](CNCc4ccc5c(n4)NC(=O)CS5)[C@H](O)C3)c2n1` came in with an IFI of 4.76%.

On to `Cc1cc(N[C@@H](Cc2ccccc2)C(=O)NCc2cccc(F)c2)nc(NCCc2ccccc2)n1`, for which the IFI amounted to 9.3%. `CC1CCC(C[C@@H](C(=O)N[C@@H](CCC(=O)N2CCCCC2)C(=O)Nc2nccs2)[C@H](C(C)C)N(O)C=O)CC1` (stereo partly specified) had an IFI of 2.22%. In the case of `c1cc(-c2ccc(CNCc3ccc(-c4csnn4)cc3)cc2)cc(-c2nc3ccccc3[nH]2)c1` it was 11.4%; in that of `CCOc1cc(CC)ccc1C1CCN(CCN2CCC(NC(=O)c3ccc(-c4ccc(C(C)=O)cc4)cc3)CC2)CC1`, 1.83%; in that of `Cc1cccc2c(/C=C/C(=O)NC3CCC(CCN4CCc5ccc(C#N)cc5CC4)CC3)c[nH]c12` (stereo unspecified), 1.52%. Consider `Cc1cccc2nc(-c3ccc(-c4ccc(NC(=O)Nc5ccc(Cl)cc5)cc4)s3)[nH]c12`, for which the IFI came to 5.94%. The same measure for `Brc1cc(Br)c2c(c1)C(NCCCNC1CCNc3c(Br)cc(Br)cc31)CCN2` (stereo unspecified): 3.5%.

`O=c1cc(NCCCNCc2cn(S(=O)(=O)c3ccccc3)c3ccccc23)[nH]c2ccccc12` registered an IFI of 5.88%. The molecule `CCc1cn2c3c(cc(C(=O)N[C@@H](Cc4ccccc4)[C@H](O)CNCc4ccc(C)cc4)cc13)N(C)S(=O)(=O)CC2` showed an IFI of 2.92%.

For the molecule `CC1CCCN(c2ccc(NC(=O)c3cccs3)cc2[N+](=O)[O-])C1` (stereo unspecified), the IFI was 11.9%. Regarding `c1cc(CN2CCCCC2)cc(-c2ccc(-c3nc4ccccc4[nH]3)s2)c1`, the IFI came out at 2.86%. Turning to `COc1ccc(CNC2CCN(C)CC2)cc1-c1ccc(S(=O)(=O)NCc2cccnc2)s1`, the IFI was -0%. On to `CCCC(CNCc1ccc(Cl)c(C(F)(F)F)c1)CNc1nc2cnccc2[nH]1` (stereo unspecified), for which the IFI was determined as 2.88%.

Take `COc1ccc2ncc(C#N)c(CCN3C4CCC3CC(NCc3ccc5c(n3)NC(=O)CS5)C4)c2c1` (stereo unspecified): the IFI stood at 3.62%. For `Oc1cc2c(cc1CN1CCN(Cc3cccs3)CC1)CCC2`, the IFI amounted to 5.88%.

`O=C(c1ccccc1NN=C1C(=O)N(c2ccccc2)N=C1c1ccccc1)N1CCOCC1` came in with an IFI of 2.11%.

Regarding `Cc1ccc(CNC(=O)[C@H](Cc2ccccc2)Nc2cc(C)nc(NCC3CCCCC3)n2)cc1`, the IFI turned out to be 24.3%. On to `Cc1cccc2nc(-c3ccc(-c4cccc(NC(=O)COc5ccccc5C(N)=O)c4)s3)[nH]c12`, for which the IFI is 12.2%. In turn, `O=C(NC1CCCc2ccccc21)C1CCCN(C(=O)c2ccc(O)c(-c3ccc(Cl)c(Cl)c3)c2)C1` (stereo unspecified) yielded an IFI of 0.76%. In the case of `NCC1(c2nc(-c3ccc(Cl)c(O)c3)c(-c3ccncc3)[nH]2)CCCCC1` it was 3.55%. The same measure for `CC(C)Cc1nc2nc(N)nc(N)c2cc1C(C)C`: 2.82%; for `Cn1c(Nc2cc(C(C)(C)C)on2)nc2cc(Nc3ccnc(Nc4ccc(CS(C)(=O)=O)cc4)n3)ccc21`: 0.95%. The same measure for `Cc1ccc(NC(=O)C(C)Sc2nnc(-c3ccccc3Br)[nH]2)cc1` (stereo unspecified): 3.85%. Molecule `O=C(CSc1nnc(O)n1Cc1ccccc1)Nc1ccccc1-c1ccccc1` came in with an IFI of 0.76%. In the case of `COc1ccc(-c2nc(NC(=O)Cc3ccc(OC)c(OC)c3)sc2C)cc1` it was 10.4%; in that of `CC(C)(C)c1ccc2[nH]c(-c3ccc(/C=C/C(=O)NCc4cccc(C(F)(F)F)c4)cc3)nc2c1`, 2.9%; in that of `CN(C)CCNCc1ccc(-c2ccc3c(Nc4ccc(F)cc4Cl)ccnc3c2)o1`, 9.86%. The same measure for `CCc1ccccc1-c1csc(C(=O)NCC2CCN(Cc3ccc(C(C)(C)C)cc3)C2)c1` (stereo unspecified): 16.7%. For the molecule `COc1cccc(C2CCN(CCN3CCC(CNC(=O)c4ccc(-c5ccc(C(F)(F)F)cc5)cc4)CC3)CC2)c1`, the IFI came out at 8.77%.

With `COc1ccc2nccc(NC(=O)C3(O)CCC(NCc4ccc5c(c4)NCCS5)CC3)c2n1` (stereo unspecified), the IFI came to 6.77%. In the case of `COc1cc(NCCCNCc2cn(S(=O)(=O)c3ccccc3)c3ccccc23)nc2ccccc12`, the IFI was determined as 8.96%. Regarding `CC(CC1CCCCC1)NCc1ccccc1OCCC(=O)N1CCCC1C(N)=O` (stereo unspecified), the IFI was 0.77%. In the case of `COc1ccc(-c2cnn3ccc(Nc4cc(OC)c(OC)c(OC)c4)nc23)cc1OC` it was 12.8%.

In the case of `N=C(N)NC(=O)Nc1cc(Br)c(Br)c(Br)c1`, the IFI came to 6.5%. `CC(=NNC(N)=O)C1=C(O)C(c2ccccc2)N(C2CCCCC2)C1=O` (stereo unspecified) registered an IFI of 1.52%. For the molecule `O=C(CCc1c[nH]cn1)Nc1cccc(-c2ccc(-c3nc4cc(F)ccc4[nH]3)s2)c1`, the IFI was determined as 2.61%. The same measure for `CC(C)Nc1nc(NC2CCCCC2)nc(N2CCCCCCC2)n1`: 4.96%; for `CC1CCN(c2nc(C(=O)NCCc3ccc(Cl)c(Cl)c3)c(C(C)C)s2)CC1`: -0%. `CCCC(C)C(=O)N1CCOC(COCc2cccc(C(F)(F)F)c2)(c2ccc(Cl)cc2)C1` (stereo unspecified) registered an IFI of 2.82%. As to `O=C(Nc1ccc(Cn2ncc(N3CCCNCC3)c(Cl)c2=O)cc1)Nc1cc(F)cc(C(F)(F)F)c1`, the IFI stood at 8.82%. Molecule `Cc1cc(C2CCN(CCCCNC(=O)c3ccc(NC(=O)c4ccc(Cl)cc4)cc3)CC2)c(C)cc1OCCN(C)C` showed an IFI of 5.76%. In turn, `Cc1ccc(NC(=O)c2ccc(C(=O)NC3CCN(CC4CCCCC4)CC3)cc2)cc1` gave an IFI of 1.79%. Regarding `COc1ccc(S(=O)(=O)N2CCCc3ccc(Br)cc32)cc1N1CCN(C(=O)C(Cl)(Cl)Cl)CC1`, the IFI is 4.2%. For the molecule `Cc1cc(-c2ccc3c(c2)CCN(CCCOc2ccc4c(c2)CCN4C(=O)/C=C/c2ccccc2Cl)CC3)no1`, the IFI is 10.8%.

In turn, `COc1ccc(NC(=O)C2c3ccccc3C(=O)N(CC(C)C)C2c2cccs2)cc1OC` (stereo unspecified) returned an IFI of 2.38%.

For the molecule `COc1ccc(-c2ccc(S(=O)(=O)Nc3cc4c(cc3OC(C)C)CCN(C)CC4)cc2)cc1`, the IFI amounted to 4.29%. `O=C(NCC1CN(Cc2ccc(N3CCCC3)o2)CCCO1)c1ccc2c(c1)OCO2` (stereo unspecified) registered an IFI of 3.85%.

`CN1CCN(CC(=O)Nc2ccc(-c3ccc(-c4nc5ccccc5[nH]4)s3)cc2)CC1` yielded an IFI of 3.6%. For `COc1ccc(-c2csc(NC(=O)CCC(=O)O)n2)cc1OC`, the IFI came to 1.44%. `O=C(Nc1ccc(-c2ccccc2)cc1)Nc1cccc(Cn2ncc(N3CCCNCC3)c(Cl)c2=O)c1` showed an IFI of 8.22%. As for `COc1cc2nc(N3CCC(CNC(=O)c4ccc(C(C)=O)cc4)CC3)nc(N)c2cc1OC`, the IFI worked out at 1.77%. In the case of `O=C(NCC1CCN(C/C=C/c2ccccc2)CC1)Nc1ccc(Oc2ccccc2)cc1` it was 14.2%; in that of `COc1ccccc1C(=O)Nc1ccc(Nc2nc(C)cc(N3CCOCC3)n2)cc1`, 10.8%.

`COc1ccc2nccc([C@@H](O)CN3CCC(NC(=O)Cc4cc5ccccc5s4)CC3)c2c1` came in with an IFI of 2.94%.

On to `Cc1cccc2nc(-c3cccc(-c4cccc(NC(=O)Cc5c[nH]cn5)c4)c3)[nH]c12`, for which the IFI is 4.63%. Consider `COc1cccc(NC(=O)NC2CCN(CCCCCNC(=O)/C=C/c3ccc(Cl)c(Cl)c3)CC2)c1`, for which the IFI was determined as 2.52%. Consider `CN1CCN(c2nsc3ccc(-c4ccc(NC(=O)Nc5cc(C(F)(F)F)ccc5F)cc4)cc23)CC1`, for which the IFI was found to be 12.5%. In the case of `COc1ccc2nccc([C@@H](O)CN3CCC(NC(=O)/C=C/c4cc([N+](=O)[O-])ccc4OC)CC3)c2c1` it was 3.62%; in that of `CCCNCc1ccc(-c2ccc(CN(Cc3ccc4c(c3)OCO4)C(=O)[C@H]3CCCO3)cc2)nc1`, 2.78%. In turn, `CC=CC1CCNC(C(O)c2ccnc3ccc(OC)cc23)C1` (stereo unspecified) had an IFI of 1.45%.
